# According to the supplement of paper PMC11417369:
# ± gives the standard deviation of the averaged measurements. This is one part of the list.
# System: PfAP2-EXP AP2 domain (GST-tagged)
# Experiment: gcPBM binding intensity (ln(normalized median fluorescence intensity)); higher = stronger DNA binding
# Procedure, shortened: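 Binding intensity values are the highest Masliner-normalised natural-log median intensity among replicate spots of either probe orientation. The binding step lasted 1 h in 1× PBS with 1% milk, 0.2 mg/ml BSA, 0.5% salmon testes DNA and 0.03% Triton X-100, using GST-tagged P. falciparum DNA-binding domains expressed in E. coli on an Agilent 4 × 180k array of primer-extended double-stranded 36-bp intergenic genomic probes plus negative controls. Alexa488 anti-GST antibody and a 488 nm scan detected bound protein.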
row,Sequence,gcPBM binding intensity (ln)
1,CTTTTCTCCCTCCATAGTACAATTATAAAAATATAT [XGTACX_site3090],8.75 ± 0.071
2,ATGCAAAGTTTATAAAGTACATAAGTCAAAATAAAA [XGTACX_site1441],8.94 ± 0.39
3,AAGATAATATTTTCTTGTACGCATGCACATACAAAT [XGTACX_site7181],9.4 ± 0.31
4,ATTAACTATCATAACACACACAGTAGACATATTTTT [CACACA_site1822],8.37 ± 0.38
5,AAATCATTTAAGAACACACAAATATTTCCATTAAAT [CACACA_site6808],8.4 ± 0.45
6,CTCAATGTTTGCGATACATGCAAAAATTTTTAGAAT [TGCATGCA_site165],8.62 ± 0.37
7,TACATTTCATTGTAATCATAAAAAATAAAGAAAAAA [XGTACX_negctrl_site542],8.43 ± 0.54
8,GAAAGGATATATATATATATATATATAATACATTTC [GTGCAC_negctrl_site677],8.58 ± 0.099
9,TATATATACATACATACACACATATATATATATATT [CACACA_site4110],8.71 ± 0.4
10,ACATATAATATATAATGTACAAAATTGTTAACAATA [XGTACX_site3798],8.62 ± 0.49
11,AAGGGGTAAAGAAAAACACACAAAAAATAAAAATAT [CACACA_site361],8.86 ± 0.62
12,AAGAGAAAAATATATACACACACATAAATATATACA [CACACA_site8573],8.62 ± 0.46
13,GAAATAATTCGATGTGCATGTAACGTTTCCCCAAAG [TGCATGCA_site122],9.18 ± 0.45
14,TGCATACTTTTGTAAGTGCATAAAATCGTACCATGC,8.71 ± 0.11
15,GATGAAAATAGAAATACACACTAAAAAATAAAATTA [CACACA_site4764],8.44 ± 0.4
16,AATTAAAAAAAATACACACACACATACACATATATA [CACACA_site3298],8.91 ± 0.26
17,CCAAAAAAAAAAAAAAGTACATAAAAACAAGAGAAT [XGTACX_site3037],8.94 ± 0.72
18,CGTATTTATATAATTACACACCATATTATAATTATT [CACACA_site3760],8.63 ± 0.35
19,GTACATAGATTGTACATACACACCTATATAAATATC [CACACA_site3225],8.53 ± 0.31
20,TTTTTTTTGTTCTATACAATTATAAAAATAAAATAT [XGTACX_negctrl_site53],8.15 ± 0.31
21,AATATATGGTTCCATGATATTAAATTCAATTTAATG [CACACA_negctrl_site605],8.21 ± 0.39
22,TAATATCATTTATGTAGTACTATAACAAGAACTATA [XGTACX_site3618],8.33 ± 0.35

row,Sequence,gcPBM binding intensity (ln)
1,AAAAAAAAAAAGCACACACACATATGAGTATATATA [CACACA_site4683],8.54 ± 0.59
2,GCTTATATAAAAAGTTGTACAACCGAATCTTTTACA [XGTACX_site2119],8.78 ± 0.37
3,TACACAAGCAGACACACACACATATATATATATATA [CACACA_site1270],10.1 ± 0.53
4,AATGTAAAAGTAAACACACACATATATAAATACATA [CACACA_site5386],8.78 ± 0.26
5,TAGATATATAGACACACACACATTAATACCTATATT [CACACA_site7605],8.69 ± 0.3
6,TGTCATTTAATTTTTTGTACGAAAAAAACATATAAA [XGTACX_site4952],8.6 ± 0.24
7,TATATATATAGACACACACACACATATATATATATA [CACACA_site9366],10.1 ± 0.42
8,GTATATATATATGTATATATTTTATTTTATTTTTAT [CACACA_negctrl_site1439],8.19 ± 0.34
9,AGTTGTTTTAATAATGCATGTTATTTTATTTTAATA [TGCATGCA_site168],8.68 ± 0.28
10,CTTATTATTATATGGGTGCTCATATTTTTCTTTTTT [GTGCAC_site9723],8.58 ± 0.38
11,ACAAACATTAGGGAAGCATGCAATATTTTTTTACAT [TGCATGCA_site372],9.13 ± 0.56
12,ATTATATACATATATATACACACGTAGTTTCTATTT [CACACA_site8697],8.36 ± 0.33
13,TACTTTTTATTTTCTTGTACTTAATTGTCCAGATTT [XGTACX_site4334],8.72 ± 0.52
14,TATAAATAAATAGATACACACATATATATAAATACA [CACACA_site155],8.59 ± 0.39
15,ATATATATATATAAATGTACATTTTTCAATAGTTTT [XGTACX_site7449],10.1 ± 0.3
16,ATTTTAATATAAAATACACACTACTATTATAAATAT [CACACA_site4917],8.26 ± 0.49
17,GTACACATATAGTAATAATTTTATTATATTTTTTTG [CACACA_negctrl_site843],8.46 ± 0.3
18,CACCCCCACAGACACACACACACACCCACATATATA [CACACA_site365],9.27 ± 0.39
19,ATTCTTATTTAAAGGTGTACTCTTAAACAGATTTTA [XGTACX_site3526],8.38 ± 0.28
20,TTCATAAAATGATATTGTACAAATAAATAATAGTAT [XGTACX_site819],8.98 ± 0.53
21,GGTCTTCTTAATATACTGCACTGTATACGTATATAA,9.18 ± 0.18
22,AGATTTAAATTTATATGTACATAATATGGGCGTATA [XGTACX_site6631],8.94 ± 0.45
